Data as given in paper PMC6212790.
The other results are listed elsewhere or left out. At the low end of the ranking the order means little.

molecular target: T1, GST-Rok-C97-191 (UniProt O34857); assay: protein binding microarray; conditions: Rok is a gene silencer of Bacillus subtilis; high values mean tight binding; most listed sequences are background and not binding sites; double strand, one strand shown;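 note: rank score from −0.5 (least bound) to 0.5 (best bound)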
T1 sequence: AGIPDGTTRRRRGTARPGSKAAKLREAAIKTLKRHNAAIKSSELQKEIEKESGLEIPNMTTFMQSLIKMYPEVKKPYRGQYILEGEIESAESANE

Sequence | binding signal [E-score]
AATACACT | 0.155
GACGTCGC | -0.132
GTCTCTTA | -0.165
AACGCCTG | -0.256
CATATCGA | 0.0885
CCGGCAGC | -0.146
AAGTCTCA | -0.248
GACCTTAC | -0.062
ATTTAAAA | -0.0263
TAGGGGCA | -0.0802
AATTGTTC | 0.273
CTGAAAGA | 0.00993
CTTTGCCC | -0.0468
CACAGGCC | -0.171
ATCTGCTA | 0.108
GGATGTAC | 0.275
AAATCGCC | 0.0495
ACTCGACG | -0.0801
CTCCGGAG | -0.127
ACAACCTC | -0.00502
CCTATGAC | 0.091
ATATAGCA | 0.3
CCATTCGA | 0.0586
CGGTGCAG | -0.0983
CAACTGAG | -0.0688

Sequence | binding signal [E-score]
ACCCGACA | -0.156
CCTCAATC | -0.119
ACGGAGGC | -0.287
AAACCTTA | -0.00919
AGCTAAAT | 0.23
ATCAAAGG | -0.041
GTTATTTA | 0.273
ATCGCCAA | 0.00102
AATGCATC | 0.0583
CGTATTTA | 0.318
ATTAACAA | 0.268
GAGCTTAC | -0.189
AAAGAAGG | -0.184
AAGTGCGT | -0.117
CCAGTATC | -0.0604
ACCCCTAG | -0.0165
CGCGGCTA | -0.127
CAGAACCA | -0.0109
CGATTGCG | -0.0899
ATTATTAG | 0.325
TAATTATA | 0.386
CAAAGTTG | -0.153
GAAGAAAA | -0.109
CGGCAATC | -0.0976
TCGCGTAA | 0.0815

Sequence | binding signal [E-score]
AAGTGATT | -0.0378
GTTCGCTA | 0.172
CACGTGAC | -0.221
ATCAGCAG | -0.0269
AGCATACT | 0.12
GATCCTTA | -0.132
TGTTTAAA | 0.0959
ACAAATTG | 0.0672
AACGGAGC | -0.0688
CAGTGCGC | -0.0706
GGGGAAAA | -0.0211
AACAAACA | 0.0599
AGTCGGCA | -0.0581
AGAAGCAC | -0.0716
CCTACGCC | -0.184
AGACACAG | 0.00528
ACAAGAGT | 0.0653
GGTCGCAC | -0.115
GACGCAAA | -0.0986
CAGGAAGG | -0.0787
AAAGCTCG | -0.166
AGTAAAAG | 0.267
GCAGCTTA | -0.11
AGGGATCA | -0.157
CAGTTAGA | -0.0111

Sequence | binding signal [E-score]
AATATTTG | 0.194
AGTGCTTG | -0.0883
GTACGTAA | 0.0489
CCGGGCAA | -0.224
ATGACCAT | -0.14
CCCTCCAC | -0.29
CGGTGGTC | -0.205
CGTTCGAG | -0.113
GTATACTA | 0.338
GTCTCGAA | -0.0363
ACAGCTAA | 0.219
ACGCAGAG | -0.188
ATCAATTA | 0.213
CCTGGCCA | -0.292
CTTGTCTC | -0.0999
CGTCTCAG | -0.15
GTGAATGA | -0.105
ATCATTAC | 0.254
ACGGGGGC | -0.357
CGAGTTAC | 0.13
AACTGACG | -0.0524
CCTGACCG | -0.265
ATGGCACG | 0.00487
CCCGACTA | -0.126
CGCCTTTC | -0.327

Sequence | binding signal [E-score]
ACCCGAAG | -0.266
GACCATAA | 0.0376
CGTCTTTC | -0.0563
ACATGTCC | 0.0978
CAGATACC | -0.0611
ACGAAAGG | -0.0608
TGTCCCAA | -0.11
AAGCGATT | 0.194
ACATAACC | 0.111
CAGCCATA | 0.068
AACCCCAG | -0.261
AACGAGAT | 0.0637
CAAGGTAC | -0.0717
TAGATTCA | 0.282
GAGTACGC | -0.152
CAGACAAG | -0.143
ATGAAGGG | -0.0907
CAGGGAGG | -0.279
AAACTCTC | 0.0812
AACCGAAA | 0.0957
CTTCGGCA | -0.145
ATCGTTCG | -0.00737
GCAATAAC | -0.174
GCAGCGAC | -0.101
CGCGAGCG | -0.215

Sequence | binding signal [E-score]
GCCAGCCA | -0.324
GATTTAAC | 0.265
AGCGGCCT | -0.118
CCCGCCCG | -0.29
CACGGACG | -0.11
CGTCTGTC | 0.00209
ACCAGCCG | 0.0915
CTGCATTC | -0.0615
ACATGCCC | -0.0671
GTGTGCTA | 0.0695
AGGCAACA | -0.183
CTTTATCA | -0.0451
GCCAACGC | -0.288
GATGCCCA | -0.0796
TCTGGGAA | 0.0446
CTAACGCC | -0.0885
CAGCGGGA | -0.188
ATTAACAG | 0.069
TAGCTAAA | 0.239
TTAGACAA | 0.0852
CGTATCTA | 0.312
AAATTCAA | 0.204
ACGGAAAT | 0.154
CCAAAAGG | -0.224
GAGAACGA | -0.104

Sequence | binding signal [E-score]
GAGCGCGA | -0.0265
AAGCTCAA | 0.0333
GAGTTAAC | 0.116
TAATGCGA | 0.148
AGCGATAT | 0.273
CATGGACG | -0.221
GTGGCCCA | -0.195
CCTGTCCG | -0.22
CGTTGAGA | -0.0429
AAAACGAG | -0.0181
CGAACTTA | -0.0294
AATATTCG | 0.307
CTATGAAA | 0.124
AAAAATTA | 0.268
CATCAGGG | -0.12
GAAAACTA | 0.336
TAATCTGA | -0.0847
GGGCCGAC | -0.276
CCTCAAGA | 0.0377
AATAGATG | 0.267
AAACAGGC | -0.0568
AGTTTTGG | 0.036
